Source: PubChem BioAssay AID720709 (National Center for Advancing Translational Sciences (NCATS), 2013)
In all, about 360,000 compounds went through this assay and about 520 (0.14%) were called active. The shares of active, inactive and inconclusive entries below differ from those in the screen. Calls come from the whole dose curve; as a rule, active = well fitted inhibition curve with a large enough effect; inconclusive = small, poorly fitted or top-dose-only effect; inactive = no such curve, though single readings can be large or run the other way. No potency is given beside an inconclusive call; the fits are too rough.

biological target: Rap guanine nucleotide exchange factor 3 (Homo sapiens) (UniProt O95398); test: qHTS for Antagonist of cAMP-regulated guanine nucleotide exchange factor 3 (EPAC1): primary screen; conditions: EPAC1 GEF assay, Rap1b-BODIPY-GDP exchange fluorescence; series mostly up to 115 µM; note: nearly all actives have a fitted effect of over 50% in size
Sequence of UniProt O95398 (O95398 whole entry, looked up): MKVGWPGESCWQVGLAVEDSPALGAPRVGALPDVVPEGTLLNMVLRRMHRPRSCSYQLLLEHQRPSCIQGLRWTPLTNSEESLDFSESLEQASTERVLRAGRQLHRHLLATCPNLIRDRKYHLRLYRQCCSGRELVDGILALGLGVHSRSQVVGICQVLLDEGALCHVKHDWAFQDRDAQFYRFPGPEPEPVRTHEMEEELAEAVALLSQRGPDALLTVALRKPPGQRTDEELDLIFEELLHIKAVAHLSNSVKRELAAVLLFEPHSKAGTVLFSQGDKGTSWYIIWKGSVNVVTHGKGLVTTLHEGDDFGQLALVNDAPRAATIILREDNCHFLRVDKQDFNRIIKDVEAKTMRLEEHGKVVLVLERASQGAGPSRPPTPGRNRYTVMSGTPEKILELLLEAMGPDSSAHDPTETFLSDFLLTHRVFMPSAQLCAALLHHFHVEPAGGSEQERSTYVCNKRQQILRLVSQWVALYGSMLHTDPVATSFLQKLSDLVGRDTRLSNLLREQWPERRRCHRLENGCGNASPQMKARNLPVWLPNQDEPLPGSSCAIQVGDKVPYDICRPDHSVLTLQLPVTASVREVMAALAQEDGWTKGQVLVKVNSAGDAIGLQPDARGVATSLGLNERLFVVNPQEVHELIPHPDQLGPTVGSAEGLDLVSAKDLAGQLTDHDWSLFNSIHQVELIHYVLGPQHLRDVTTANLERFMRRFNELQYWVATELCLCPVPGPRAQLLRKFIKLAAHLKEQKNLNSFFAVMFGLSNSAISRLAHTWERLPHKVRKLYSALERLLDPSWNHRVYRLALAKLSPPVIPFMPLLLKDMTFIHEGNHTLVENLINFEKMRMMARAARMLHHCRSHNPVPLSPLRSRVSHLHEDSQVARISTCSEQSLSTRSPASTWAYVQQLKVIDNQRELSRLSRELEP
Text: In multi-cellular eukaryotic organisms, the effects of cAMP are transduced by two ubiquitously-expressed intracellular cAMP receptors, the classic protein kinase A/cAMP-dependent protein kinase (PKA/cAPK) and the more recently discovered exchange protein directly activated by cAMP/cAMP-regulated guanine nucleotide exchange factor (EPAC/cAMP-GEF). Both PKA and EPAC are ubiquitously expressed in all tissues, and an increase in intracellular cAMP levels will lead to the activation of both PKA and EPAC. Therefore, careful dissections of the individual role and relative contribution of EPAC and PKA within the overall cAMP signaling in various model systems are critical for further elucidating the mechanism of cAMP signaling. To date no EPAC-specific antagonists and agonist, as well as isoform-specific agonists have been reported, and developing EPAC-specific pharmacological probes to determine the physiological functions that EPAC play in the overall cAMP-mediated signaling remains a major challenge within the research field. Furthermore, identified regulators of EPAC may lead to new mechanism-based therapeutic strategies specifically targeting the EPAC / cAMP-signaling components as EPAC has been implicated to play important roles in major human pathological conditions such as diabetes, heart disease, and cancer. This qHTS will be used to screen the Molecular Libraries Small Molecule Repository (MLSMR) as a concentration-titration series using the NCGC unique quantitative screening (qHTS) platform to find inhibitors for EPAC1. In addition, this assay will also be used as a counterscreen for the EPAC2 qHTS. This fluorescent based assay is developed and validated for EPAC1 that measures exchange using EPAC effector Rap1 complex with BODIPY-GDP, a GDP analog with a tethered fluorophores. Inhibitors are identified by monitoring the change in fluorescence signal as the exchanged free BODIPY-GDP has a reduced fluorescence compared to Rap1-bound BODIPY-GDP. Decrease in signal (inhibition) is the desired outcome for the EPAC1 antagonist while no activity in this assay is desired for the EPAC2 antagonist counterscreen. de Rooij, J., Zwartkruis, F. J., Verheijen, M. H., Cool, R. H., Nijman, S. M., Wittinghofer, A., and Bos, J.L. (1998) Nature 396, 474-477 [2] Kawasaki, H., Springett, G. M., Mochizuki, N., Toki, S., Nakaya, M., Matsuda, M., Housman, D. E., and Graybiel, A. M. (1998) Science 282, 2275-2279 NIH Chemical Genomics Center [NCGC] NIH Molecular Libraries Probe Centers Network [MLPCN] MLPCN Grant: NS066510 Assay Submitter (PI): Xiaodong Cheng, The University of Texas, Medical Branch
Briefly, three uL of reagents (100 nM EPAC1, 250 nM RAP1B-BODIPY-GDP, 50 uM GDP) were dispensed into a 1536-well Greiner black solid-bottom medium binding assay plate. Controls and test compounds (23 nL) were transferred to the plate via a Kalypsys pin tool equipped with a 1536-pin array. The plates were centrifuged at 1,000 rpm for 15 seconds followed by 5 minute incubation at room temperature. The assay plates were read at 5 minute intervals for 30 minutes in the ViewLux plate reader using 480nm excitation and 540nm emission filters. The results were normalized to the […] positive control ATA and DMSO.
Potency is the fitted concentration of half-maximal effect; tags give direction and shape of the fitted curve.

| SMILES | Potency |
| --- | --- |
| OCC1(Cc2ccccc2)CCCN(Cc2cn[nH]c2-c2ccccc2)C1 (stereo not drawn) | inconclusive [inhibitor, partial curve] |
| CCSc1nnc(NC(=O)C2CCCCC2C(=O)O)s1 (stereo not drawn) | inconclusive [inhibitor, full curve, poor fit] |
| Cc1ccc(/C=N/NC(=O)c2sccc2OCc2ccc(F)cc2)cc1 | inconclusive [inhibitor, partial curve, poor fit] |
| CCCN(CC1CC1)C(=S)Nc1ccc(Oc2ccccc2)cc1 | inconclusive [inhibitor, full curve, poor fit] |
| O=C(NCc1ccccc1)C(c1ccccc1F)n1c(=O)c(-c2ccco2)nc2ccccc21 (stereo not drawn) | inconclusive [inhibitor, single point] |
| CCN(CC(=O)Nc1cc(Cl)ccc1C)C(=O)CCOc1ccccc1C | inactive |
| CCOC1=C2[C@H](c3ccccc3)N(S(=O)(=O)c3ccc(C)cc3)C(C(C)(C)C)[C@H]2C(C#N)(C#N)C(C#N)(C#N)C1 (stereo partly drawn) | inconclusive [inhibitor, partial curve] |
| COc1ccc2[nH]cc(CCn3ccc(O)c(C/C=C/c4ccccc4)c3=O)c2c1 | inconclusive [inhibitor, partial curve] |
| N#CC1(C#N)C(c2ccccc2)OC23CCCCCC2C1(C#N)C(=N)O3 (stereo not drawn) | inconclusive [inhibitor, single point] |
| Nc1ccc(S(=O)(=O)c2ccc(N3CCOCC3)c(N)c2)cc1 | inconclusive [inhibitor, single point] |
| CCOC(=O)C(=CNNc1cccc(Cl)c1)C(=O)OCC | inconclusive [inhibitor, single point] |
| O=c1c(N2CCOCC2)coc2ccccc12 | inactive |
| O=C(N/N=C/c1ccc(O)c(O)c1)C1c2ccccc2Oc2ccccc21 | inconclusive [inhibitor, full curve] |
| COc1ccc(C(=O)Nc2ccc(NC(=O)c3cccc(F)c3)cn2)cc1 | inconclusive [inhibitor, partial curve] |
| Cc1ccccc1C(=O)NCC(=O)OCCOc1ccc(C(C)C)c(C)c1 | inconclusive [inhibitor, single point] |
| COc1ccc(-c2csc(Nc3ccc(S(=O)(=O)Nc4cc(C)on4)cc3)n2)cc1 | inconclusive [inhibitor, partial curve, poor fit] |
| CC(=O)/C(=N/Nc1ccccc1)Sc1nnc(CCc2ccccc2)n1-c1ccccc1 | inconclusive [inhibitor, partial curve, poor fit] |
| COc1ccc(CC(=O)N[C@@H]2c3ccccc3CC[C@@H]2OCc2ccccc2)cc1 | inconclusive [inhibitor, full curve, poor fit] |
| CN(C)CCNc1ccc2ncn3c4ccc(O)cc4c(=O)c1c23 | inconclusive [inhibitor, single point] |
| COc1ccc(-c2nn(Cc3ccccc3)cc2C(=O)N2CCN(c3ncccn3)CC2)cc1 | inactive |
| COc1ccc(S(=O)(=O)N2CCOCC2)cc1NC(=O)c1ccc(OC(F)F)cc1 | inconclusive [inhibitor, single point] |

| SMILES | Potency |
| --- | --- |
| CC1=C(SCc2ccccc2)C(=O)c2ccccc2C1=O | inconclusive [inhibitor, single point] |
| CN(C)CCCNC(=S)NCCNc1nc2cc3c(cc2cc1C#N)OCO3 | inconclusive [inhibitor, single point] |
| O=C(NC1CCCCC1)C(=S)NCCc1ccccc1 | inconclusive [inhibitor, single point] |
| CC1C(=O)N(Cc2cn(Cc3ccco3)nn2)CCS(=O)(=O)N1Cc1ccc(-c2cccnc2)cc1 (stereo not drawn) | inconclusive [inhibitor, full curve] |
| N#CCCn1nc(-c2ccc(Br)cc2)cc1Nc1ccccc1NC(=O)C(F)(F)F | inconclusive [inhibitor, full curve, poor fit] |
| COc1ccc(OC)c(CN2C(=O)c3ccccc3C2c2nnnn2-c2ccc3c(c2)OCCO3)c1 (stereo not drawn) | inactive |
| O=c1c(O)c(-c2ccccc2)oc2cc(O)cc(O)c12 | inactive |
| Cc1cc(N2CCOCC2)nc2ccc(NC(=S)NCCC(C)C)cc12 | inactive |
| COc1ccc(S(=O)(=O)N2CCN(CC(=O)Nc3ccccc3Cl)CC2)cc1 | inactive |
| COc1cc(NC(=O)C2=C(N3CCOCC3)/C(=C\c3ccc(Cl)cc3Cl)CC2)cc(OC)c1OC | inconclusive [inhibitor, single point] |
| Cc1ccc(S(=O)(=O)N(C)/N=C/c2ccc(N(C)C)cc2)cc1 | inconclusive [inhibitor, full curve, poor fit] |
| O=c1cc(-c2ccccc2Cl)oc2ccc([N+](=O)[O-])c(O)c12 | inactive |
| Cc1nnc(Sc2cc(NCCCO)c([N+](=O)[O-])c3nonc23)s1 | active: 39.8 µM |
| C=C(C)C(O)CC/C(C)=C/Cc1c(O)ccc(C(=O)/C=C/c2ccc(O)cc2)c1O (stereo not drawn) | inconclusive [inhibitor, partial curve, poor fit] |
| CCOc1cc(/C=N/n2cnnc2)ccc1OCC(=O)Nc1ccccc1OC | inconclusive [inhibitor, full curve, poor fit] |
| Cc1ccc(NC(=O)Nc2cnccn2)c(C)c1 | inconclusive [inhibitor, partial curve] |
| COc1ccc(/C=N/NC(=O)c2[nH]c3ccc(Br)cc3c2-c2ccccc2)cc1 | inactive |
| COc1ccc2nc(N3CCCC3)c(C#N)cc2c1 | inactive |
| O=C(NCCN1CCOCC1)Nc1ccccc1 | inconclusive [inhibitor, single point] |
| CCSC1=NCCN1C(=O)C(C)(C)Oc1ccc(Cl)cc1 | inconclusive [inhibitor, partial curve, poor fit] |
| CCOc1ccc(OCCCCn2cnc3ccccc3c2=O)cc1 | inconclusive [inhibitor, partial curve] |

| SMILES | Potency |
| --- | --- |
| Cc1cc(OCC(=O)OCC(=O)c2ccc[nH]2)ccc1Cl | inconclusive [inhibitor, single point] |
| C[C@@H]1CN([C@@H](C)CO)C(=O)c2cc(NC(=O)CCC(F)(F)F)ccc2O[C@H]1CN(C)S(=O)(=O)c1ccc(Cl)cc1 | inconclusive [inhibitor, single point] |
| O=C(NCc1ccco1)c1c2c(nc3ccccc13)CCC2 | inconclusive [inhibitor, partial curve] |
| CCOc1ccc(S(=O)(=O)N(CC(=O)NCc2ccncc2)c2ccc(C)cc2)cc1 | inactive |
| CC(C)CNC(=O)C1CCN(S(=O)(=O)c2ccc(-n3cnnn3)cc2)CC1 | inconclusive [inhibitor, single point] |
| COc1ccc(C(C)(O)c2nc(-c3cccc(C(C)C)c3)cs2)cc1 (stereo not drawn) | inconclusive [inhibitor, partial curve] |
| O=c1c2ccccc2nc2n1CC/C2=C\N1CCN(c2ccc([N+](=O)[O-])cc2)CC1 | inconclusive [inhibitor, full curve, poor fit] |
| CCNC(=S)N1CCN(S(=O)(=O)c2ccccc2C(F)(F)F)CC1 | inconclusive [inhibitor, single point] |
| O=C(O)c1ccc(C=C(c2nc3ccccc3s2)c2nc3ccccc3s2)cc1 | inconclusive [inhibitor, partial curve, poor fit] |
| Cc1ccc(NS(=O)(=O)c2ccc3c(c2)NC(=O)CCS3)cc1F | inconclusive [inhibitor, partial curve, poor fit] |
| CN(c1ccccc1)c1ccc(/C=C(\CCC(=O)O)c2nc3ccccc3s2)cc1[N+](=O)[O-] | inconclusive [inhibitor, full curve] |
| O=C(NCc1ccco1)C1Cc2c(-c3ccccc3Oc3ccccc3)ccnc2O1 (stereo not drawn) | inconclusive [inhibitor, full curve, poor fit] |
| CN(C)c1ccc(C=C(C#N)C(=O)c2ccccc2)cc1Br | inconclusive [inhibitor, partial curve] |
| NCCCC[C@H]1CNC(=S)N1CC1CCCCC1 | inconclusive [inhibitor, single point] |
| CC1CN(C(=O)CCC(=O)NCCCN2CCC(Cc3ccccc3)CC2)c2cc(Cl)ccc2O1 (stereo not drawn) | inconclusive [inhibitor, partial curve] |
| CCOC(=O)c1ccc(N2C(=O)C3C(/C=C/c4ccccc4)OC4(C(=O)c5ccccc5C4=O)C3C2=O)cc1 (stereo not drawn) | active: 100 µM |
| O=C(COC(=O)/C=C/c1ccc([N+](=O)[O-])cc1)NCC1CCCO1 (stereo not drawn) | inconclusive [inhibitor, single point] |
| Cc1ccc(-c2nc(CSCC(=O)N3CCN(c4ccccn4)CC3)c(C)o2)cc1 | inconclusive [inhibitor, partial curve] |
| Cn1cc(C(=O)c2ccc(Cl)cc2Cl)cc1C(=O)N/N=C(\N)COc1ccc(F)cc1 | inconclusive [inhibitor, partial curve] |
| COC(=O)c1ccc(S(=O)(=O)NNC(=O)c2ccc(S(=O)(=O)N3CCCCC3)cc2)cc1 | inconclusive [inhibitor, single point] |
| O=[N+]([O-])c1cc(CN2CCN(c3cccc(C(F)(F)F)c3)CC2)c2cccnc2c1O | inconclusive [inhibitor, full curve] |
